# Data: PubChem BioAssay AID686978 (National Center for Advancing Translational Sciences (NCATS), 2013)
# “And” between values parts separate entries of the source, which are not always exact repeats. Equal entries are not always repeated. About 64,000 (15%) of roughly 420,000 compounds were called active. Inconclusive means that the source gave no clear call. Such entries were picked first, then a sample of the others. Calls come from the whole dose curve; as a rule, active = well fitted inhibition curve with a large enough effect; inconclusive = small, poorly fitted or top-dose-only effect; inactive = flat fitted curve, though single readings scatter. No potency is given beside an inconclusive call; the fits are too rough.
# Test: qHTS for Inhibitors of human tyrosyl-DNA phosphodiesterase 1 (TDP1): qHTS in cells in absence of CPT; note: nearly all actives have a fitted effect of over 55% in size
# Conditions: DT40 Tdp1-/- hTDP1 cells, no CPT, ATP luminescence, 48 h; activity change, negative = growth inhibition: at 46.2 µM (top of the series) unless noted
# Procedure, shortened: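 No-CPT arm: Tdp1-/-;hTDP1 DT40 cells (400/well) plus compounds, incubated ≥48 hr at 37 °C. Readout CellTiter-Glo luminescence.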
# % is set by controls: 0 for no effect and ±100 for the full control effect; potency is the fitted concentration of half-maximal effect; tags give direction and shape of the fitted curve.
SMILES,Potency,"activity change, negative = growth inhibition"
O=S(=O)(Nc1ccc2c(c1)OCCO2)c1cccc2cccnc12,"inconclusive [inhibitor, partial curve]",–
Cc1cc(C)n(-c2ccc(Cl)c(C(=O)O)c2)n1,–,inactive: -4.92%
COc1cc(NC(=O)CSc2ncnc3c2cnn3Cc2ccccc2)cc(OC)c1,"inconclusive [inhibitor, single point]",–
CC1=C(C(=O)OCC2CCCCC2)C(c2ccc(F)cc2)NC(=O)N1 (stereo unspecified),"inconclusive [inhibitor, single point]",–
CC(C)/C=C/CN1CCCC(N2CCN(c3cccc(Cl)c3)CC2)C1 (stereo unspecified),"inconclusive [inhibitor, partial curve, poor fit]",–
CC1=C(C(=O)OCC(C)C)C(c2ccsc2)C2=C(CCCC2=O)N1 (stereo unspecified),"inconclusive [inhibitor, single point]",–
NC(=O)C1CCN(CCS(=O)(=O)c2ccc(Cl)cc2)CC1,–,inconclusive: -34.7% [inhibitor]
CCCCC(=O)Nc1nnc(S(=O)(=O)N(CC)c2cc(C)cc(C)c2)s1,"inconclusive [inhibitor, single point]",–
CCCNC(=O)CC(NS(=O)(=O)c1ccc(NC(C)=O)cc1)C(C)C (stereo unspecified),–,inactive: 7.14%
COC(OC)c1ccnc(-c2ccc(OC(=O)c3ccc(F)cc3)cc2)n1,"inconclusive [inhibitor, single point]",–
Cc1cnc(-n2ncc(C(=O)NCC3COCCO3)c2C2CC2)nc1-c1cccs1 (stereo unspecified),–,inactive: -12.5%
COc1ccccc1NS(=O)(=O)c1cc(NC(=O)Nc2cccc(C)c2)ccc1N1CCCCC1,active: 9.2 µM,–
O=C(CN1C(=O)/C(=C/c2ccccc2)SC1=S)NC1CCS(=O)(=O)C1 (stereo unspecified),"inconclusive [inhibitor, single point]",–
CCCSc1nc(SCC(=O)NCc2ccccc2)c2c3c(sc2n1)COC(C)(CC)C3 (stereo unspecified),"inconclusive [inhibitor, partial curve, poor fit]",–
Cc1c(CNCCc2ccc(S(N)(=O)=O)cc2)c(C(=O)O)c(C)n1Cc1ccc(Cl)cc1,–,inconclusive: -4.15% [inhibitor]
COc1ccccc1-n1c(C)c(C(=O)O)c2cc(OC)c3ccccc3c21,–,inactive: 9.18%
COCCN(C(=O)COC(=O)C1CCC(C(C)(C)C)CC1)c1c(N)n(Cc2ccccc2)c(=O)[nH]c1=O (stereo unspecified),"inconclusive [inhibitor, single point]",–
CCOC(=O)c1c(C)[nH]c(C)c1C(=O)CSc1nnnn1-c1ccccc1,"inconclusive [inhibitor, single point]",–
Cc1ccsc1-c1nc(CSCC(=O)N2CCN(c3ccccc3)CC2)c(C)o1,"inconclusive [inhibitor, single point]",–
OCCN(CCO)Cc1ccc(Br)cc1,–,inactive: -5.75%
CC(C)(C)[C@@H]1C=C(C(=O)NC2CC2)O[C@H](OCc2ccc(CO)cc2)C1,"inconclusive [inhibitor, single point]",–
N#Cc1cccc(NC(=O)N2CCC3(CC2)CCN(C(=O)c2ccco2)CC3)c1,"inconclusive [inhibitor, single point]",–
COCCNc1nc(-c2ccccc2Cl)nc2ccccc12,"inconclusive [inhibitor, single point]",–
CC(Oc1cc2oc(=O)c3c(c2cc1Cl)CCCC3)C(=O)NCCN1CCOCC1 (stereo unspecified),active: 13 µM,–

SMILES,Potency,"activity change, negative = growth inhibition"
O=C(/C=C/Nc1ccc(F)cc1F)c1ccco1,–,inactive: -26%
CSC1=NCCN1C(=O)C(C)(C)Oc1ccc(Cl)cc1,–,inconclusive: -31.1% [inhibitor]
Cc1nnsc1C(=O)N1CCCC(Nc2ccc(C(C)C)cc2)C1 (stereo unspecified),–,inactive: -12.9%
CCC(=O)Nc1cccc(-c2cn3ccccc3n2)c1,–,inactive: -20.2%
Cc1cc(N2CCOCC2)nc(-c2ccc([N+](=O)[O-])cc2)n1,"inconclusive [inhibitor, single point]",–
Cc1ccc(NC(=O)CSCC(=O)N(C)CCOc2ccc(Cl)cc2)cc1,–,inactive: -15.2%
Cc1ccccc1-n1ncc2c(SCC(=O)N3c4ccccc4CC3C)ncnc21 (stereo unspecified),active: 20 µM,–
O=C(NCC1CCCO1)c1ccc(/C=N/O)nc1 (stereo unspecified),"inconclusive [inhibitor, single point]",–
Cc1ccsc1/C=C1/SC(N2CC(C)OC(C)C2)=NC1=O (stereo unspecified),active: 20.6 µM,–
COc1ccccc1NC(=O)C(C)N(C)CCOc1ccccc1 (stereo unspecified),"inconclusive [inhibitor, single point]",–
CCCOc1ccc(-c2csc3nc[nH]c(=O)c23)cc1,"inconclusive [inhibitor, single point]",–
CCc1ccccc1NC(=O)Cn1nnc(C(=O)NCc2cccs2)c1N,active: 2.59 µM and active: 3.26 µM,–
O=C(CCN1CCCCC1)c1ccc2c(c1)OCCO2,active: 15.8 µM,–
C=CCOc1ccc(C2C(C(=O)c3ccc(C)o3)=C(O)C(=O)N2Cc2cccnc2)cc1 (stereo unspecified),"inconclusive [inhibitor, partial curve]",–
COc1ccc(-c2cc(=O)oc3cc(OCC(=O)Nc4ccccn4)ccc23)cc1,"inconclusive [inhibitor, single point]",–
S=c1[nH]nc(C2CC2c2ccc(Cl)cc2)n1-c1ccc(Cl)cc1 (stereo unspecified),"inconclusive [inhibitor, single point]",–
CCN(CC1CCCO1)C(=O)c1cc(COc2cc(C)c(Cl)c(C)c2)on1 (stereo unspecified),"inconclusive [inhibitor, single point]",–
Cc1cccc2c1NC(=O)C21OCC(CO)([N+](=O)[O-])CO1 (stereo unspecified),"inconclusive [inhibitor, partial curve]",–
CCCS(=O)(=O)NC(=O)C1(C)CCCN(C(=O)c2ccc(C(=O)OC)cc2)C1 (stereo unspecified),–,inactive: -2.27%
COc1cc(NC(=O)c2cc(-c3ccc(Cl)c(Cl)c3)on2)cc(OC)c1OC,"inconclusive [inhibitor, partial curve, poor fit]",–
CCCC(C)C(=O)Nc1nc(C)c(-c2csc(Nc3ccc(Cl)cc3)n2)s1 (stereo unspecified),active: 25.9 µM,–
O=C(O)c1ccccc1C(=O)Nc1ccccc1,–,inactive: -2.08%
COC(=O)[C@@]12C[C@@H](CC(=O)NCc3cccc(C(F)(F)F)c3)C(=O)N(Cc3cccc4ccccc34)C1=CCC(C)(C)C2,active: 16.4 µM,–
COc1ccc(CN(CCC(C)C)S(=O)(=O)c2ccccc2Br)c(OC)c1,"inconclusive [inhibitor, single point]",–

SMILES,Potency,"activity change, negative = growth inhibition"
O=C(NC1CCCC1)C(c1ccccc1)n1c(Cc2cc(F)cc(F)c2)nc2ccccc21 (stereo unspecified),"inconclusive [inhibitor, single point]",–
Cc1cccc(CC2S/C(=N/c3ccccn3)NC2=O)c1 (stereo unspecified),"inconclusive [inhibitor, single point]",–
Cc1ccc(O)c(N=Cc2cccs2)c1,"inconclusive [inhibitor, single point]",–
Cc1nc(-c2ccc(F)cc2)c(CC(=O)N2CCN(S(=O)(=O)c3ccccc3Br)CC2)s1,–,inactive: -21.6%
COc1ccc(-c2cc(C(=O)Nc3ccccc3O)c3ccccc3n2)cc1,"inconclusive [inhibitor, single point]",–
c1ccc(-n2c(SCc3nc(-c4cccs4)no3)nnc2-c2ccco2)cc1,"inconclusive [inhibitor, single point]",–
CC(=O)/C(C(=N)N1CCN(C(c2ccccc2)c2ccccc2)CC1)=C(\C)O,–,inactive: -9.78%
COc1ccc(CNCCSc2nnnn2-c2ccccc2)c(OC)c1,"inconclusive [inhibitor, single point]",–
COc1cc(-c2nc(C(=O)NC3CCN(Cc4ccccc4)CC3)cc3c2[nH]c2ccccc23)cc(OC)c1OC,active: 13 µM,–
C/C(=N\NC(=O)c1ccc(Cl)cc1)c1cccc(NC(=O)C(C)C)c1,–,inactive: 0.96%
Cc1ccc2[nH]c(=O)c(CN(CCc3ccccc3)C(=O)N3CCOCC3)cc2c1,"inconclusive [inhibitor, single point]",–
Cc1cccc(-c2c(NC(=O)c3ccco3)oc3c(C)cccc3c2=O)c1,active: 25.9 µM,–
CC(=O)NC(=S)NNC(=O)COc1ccc([N+](=O)[O-])cc1,–,inactive: -27.7%
COc1ccc(/C=N/Nc2cc(C)nc(N3CCOCC3)n2)cc1,–,inconclusive: -32.7% [inhibitor]
CC(C)(C)n1nnnc1C(c1cccc(C#N)c1)N1CCC(Cc2ccccc2)CC1 (stereo unspecified),"inconclusive [inhibitor, single point]",–
Cn1ncc2c(Nc3cccc(Cl)c3)nc(Nc3cccc(Cl)c3)nc21,active: 11.6 µM,–
O=C(CSc1nccn1Cc1ccc(F)cc1)Nc1ccc2c(c1)OCO2,–,inactive: -12.5%
COc1ccc(NC(=O)COc2ccc(C(=O)NCc3cccnc3)cc2OC)cc1,"inconclusive [inhibitor, single point]",–
CCN1C(c2ccc(F)cc2)=CS/C1=C(\C#N)c1nnc2n1-c1ccccc1SC2,"inconclusive [inhibitor, single point]",–
CCOc1ccc(Nc2oc(-c3ccc(COc4ccccc4C)o3)nc2C#N)cc1,"inconclusive [inhibitor, single point]",–
Cc1nc(-c2cccc(F)c2)sc1CCNC(=O)c1ccc(F)c(F)c1,"inconclusive [inhibitor, single point]",–
Cc1c(C)n(CC(O)CSc2ccccc2)c2ccccc12 (stereo unspecified),"inconclusive [inhibitor, single point]",–
CCOc1ccc(NS(=O)(=O)c2cc(NC(=O)CCC(=O)c3cccs3)ccc2Cl)cc1,"inconclusive [inhibitor, single point]",–
